Laboratory results from PubChem BioAssay (NCI).
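These data come from cells grown in 96-well plates and exposed to compound for 48 hours at five concentrations. TGI is the concentration that stops growth completely.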

Assays:
Assay in all cases: NCI anticancer screen, dose series, 48 h
CCRF-CEM leukemia = system: CCRF-CEM leukemia
MDA-MB-435 = system: MDA-MB-435
HCC-2998 colon = system: HCC-2998 colon
K-562 leukemia = system: K-562 leukemia
NCI-H460 lung = system: NCI-H460 lung
MALME-3M melanoma = system: MALME-3M melanoma
HS 578T breast = system: HS 578T breast
HOP-92 NSCLC = system: HOP-92 NSCLC
U251 CNS = system: U251 CNS
A498 renal = system: A498 renal
ACHN renal = system: ACHN renal
NCI-H226 lung = system: NCI-H226 lung
IGROV1 ovarian = system: IGROV1 ovarian
SK-MEL-2 melanoma = system: SK-MEL-2 melanoma
EKVX NSCLC = system: EKVX NSCLC
OVCAR-8 ovarian = system: OVCAR-8 ovarian
SNB-75 CNS = system: SNB-75 CNS
BT-549 breast = system: BT-549 breast
NCI-H23 lung = system: NCI-H23 lung
CAKI-1 renal = system: CAKI-1 renal
HCT-15 colon = system: HCT-15 colon
UACC-257 melanoma = system: UACC-257 melanoma
MDA-MB-231 breast = system: MDA-MB-231 breast
SK-OV-3 ovarian = system: SK-OV-3 ovarian
TK-10 renal = system: TK-10 renal
RPMI-8226 leukemia = system: RPMI-8226 leukemia
KM12 colon = system: KM12 colon
SF-539 CNS = system: SF-539 CNS
PC-3 prostate = system: PC-3 prostate
LOX IMVI melanoma = system: LOX IMVI melanoma
OVCAR-3 ovarian = system: OVCAR-3 ovarian
A549 NSCLC = system: A549 NSCLC
OVCAR-5 ovarian = system: OVCAR-5 ovarian
SK-MEL-28 melanoma = system: SK-MEL-28 melanoma
SF-295 CNS = system: SF-295 CNS
COLO 205 colon = system: COLO 205 colon
SW-620 colon = system: SW-620 colon
SN12C renal = system: SN12C renal
SNB-19 CNS = system: SNB-19 CNS
MCF7 breast = system: MCF7 breast
DU-145 prostate = system: DU-145 prostate
MDA-N = system: MDA-N
HT29 colon = system: HT29 colon
HOP-62 NSCLC = system: HOP-62 NSCLC
M14 melanoma = system: M14 melanoma
NCI-H522 lung = system: NCI-H522 lung
OVCAR-4 ovarian = system: OVCAR-4 ovarian
HL-60(TB) leukemia = system: HL-60(TB) leukemia
UACC-62 melanoma = system: UACC-62 melanoma
HCT-116 colon = system: HCT-116 colon
RXF 393 renal = system: RXF 393 renal
MOLT-4 leukemia = system: MOLT-4 leukemia
SF-268 CNS = system: SF-268 CNS
SK-MEL-5 melanoma = system: SK-MEL-5 melanoma

Measured: TGI

O=C(/C=C/c1ccccc1)Nc1ccccc1Cl
> 100 µM: CCRF-CEM leukemia | MDA-MB-435 | HCC-2998 colon | K-562 leukemia | NCI-H460 lung | MALME-3M melanoma | HS 578T breast | HOP-92 NSCLC | U251 CNS | A498 renal | ACHN renal | NCI-H226 lung | IGROV1 ovarian | SK-MEL-2 melanoma | EKVX NSCLC | OVCAR-8 ovarian | SNB-75 CNS | BT-549 breast | NCI-H23 lung | CAKI-1 renal | HCT-15 colon | UACC-257 melanoma | MDA-MB-231 breast | SK-OV-3 ovarian | TK-10 renal | RPMI-8226 leukemia | KM12 colon | SF-539 CNS | PC-3 prostate | LOX IMVI melanoma | OVCAR-3 ovarian | A549 NSCLC | OVCAR-5 ovarian | SK-MEL-28 melanoma | SF-295 CNS | COLO 205 colon | SW-620 colon | SN12C renal | SNB-19 CNS | MCF7 breast | DU-145 prostate | MDA-N | HT29 colon | HOP-62 NSCLC | M14 melanoma | NCI-H522 lung | OVCAR-4 ovarian | HL-60(TB) leukemia | UACC-62 melanoma | HCT-116 colon | RXF 393 renal | MOLT-4 leukemia | SF-268 CNS | SK-MEL-5 melanoma
